Experimental data taken from paper PMC12136788.
The list shows a part of the results.

B1: chr4:41699229:41699330:+|3pUTR|ENSG00000064042|msi1|FALSE|unique (ssRNA)
RNA: GGGAGUUCUACAGUCCGACGAUCGAUUACAUGAAUAUUGCACAUUCCCUUCUGGUUUCACAAACCCAUUUAUACAUAUUUCUUAGUGAGGCUCAUUGUACAUGUAUUGAAGCUAGAAUCGAGUCAAGAAAAAUAAAGCCCCAUCAACAGAGGAUUGAGCAUCA
B2: chr9:121180810:121180911:-|3pUTR|ENSG00000119396|msi1|total|mutant (ssRNA)
RNA: GGGAGUUCUACAGUCCGACGAUCUUUGGAUAAAUUUCCUGUUGUGUGGGUGGCAUUUUUCUUAACGAGAUUUGCUUCUGUCUCCGCCUCACACAGGGAAAAUAUCCAUUUAUCUUCUCUCUCGUGCUUAAUUAACCGCUUUAUCAACAGAGGAUUGAGCAUCA
B3: chr3:10940499:10940600:+|3pUTR|ENSG00000132164|unk|total|mutant (ssRNA)
RNA: GGGAGUUCUACAGUCCGACGAUCGGGGAGGGCAAUGUGGGGGCAGGGGAACAUGUCAUUGUGAUGACUUUUUUGAUAUUCAUCCGAAACAAUACAUCCUUUCUGAGAUAUUUACAGUAUUAUUAAAAAAUGAAAAAGGUUGUACAACAGAGGAUUGAGCAUCA
B4: chr5:74627411:74627511:-|3pUTR|ENSG00000171617|msi1_unk|FALSE|overlapping (ssRNA)
RNA: GGGAGUUCUACAGUCCGACGAUCUUUGUAAAACUGUUAUUUUUUUUUUUUUCACAAUGUGAAACUGAAGGUCAAUAAAUUAUUAGAGAUUUUCUCUUCAUUAUGUGUGUGGGUCUUCAUUUGAAUAAGACACAAUUUGAGGCACAACAGAGGAUUGAGCAUCA
B5: ENSG00000215021:stop:overlap|stop_codon|ENSG00000215021|stop_codon|NA|stop_codon (ssRNA)
RNA: GGGAGUUCUACAGUCCGACGAUCCUACAGAUGGUGAAUAUCUCCCUGCGAGUGUUGUCUCGACCCAAUGCUCAGGAGCUUCCUAGCAUGUACCAGCGCCUAGGGCUGGACUACGAGGAACGAGUGUUGCCGUCCAUUGUCAACCAACAGAGGAUUGAGCAUCA
B6: chr1:89935720:89935824:+|3pUTR|ENSG00000171492|msi1|total|mutant (ssRNA)
RNA: GGGAGUUCUACAGUCCGACGAUCUACAAGAUAAUGCAUUUCCGGAGCCGAUACAUCUUUUAAAAUAAAACAGAGAGGAUGCACCGAAGGCUGACCGAAGACAUAACUGAAUGUUCAAUGUUUGCCGGGUUUUAAGUCAUUCAUCAACAGAGGAUUGAGCAUCA
B7: chr18:9283235:9283336:+|3pUTR|ENSG00000101745|msi1|total|mutant (ssRNA)
RNA: GGGAGUUCUACAGUCCGACGAUCCUGAUGGUUCAACCAGAGGUCUGGGAAACCGCACUGUUGGCCCAAACAGAACAGGCUUUCCGAAGAUAAAAGCGACAAGAAGGAAUCUGGUGAAUUUCCGUCAUCCCAGCUUUUCCGUCUCAACAGAGGAUUGAGCAUCA
B8: chr18:9859767:9859850:+|3pUTR|ENSG00000168461|msi1_unk|total|mutant (ssRNA)
RNA: GGGAGUUCUACAGUCCGACGAUCUUGUUACCUAACCAACCUUCACUGAAAGGCAAAUUCCGUUCAGGAGGUCCGUUUUCCGCCCGCUUUGGAAGUAAGCCUUUAUUUAUUACUUUUUGGAGGAAAUCAGAGAAGUGUCAAUGGCAACAGAGGAUUGAGCAUCA
B9: chr15:80137503:80137604:+|CDS|ENSG00000086666|unk|FALSE|unique (ssRNA)
RNA: GGGAGUUCUACAGUCCGACGAUCCAAUUGCUCUUACAAUUACAAAGCCGAUGCUGCUGAGAAAAUCAGAAAAGAAAAUCCAGUAGUUGUUGGUGAAAAGAUCCAAAAGAUUUGAACUCCUGCUGGAAUACAAAAUUCUUGAGCCAACAGAGGAUUGAGCAUCA
B10: chr19:58433325:58435211:-|CDS|ENSG00000131849|control|control|control (ssRNA)
RNA: GGGAGUUCUACAGUCCGACGAUCGAAAGAUCUACACUUGUUCGGCACCAGAAAGUUCACACCAGAGAAAGGACUUAUGAGUGUAGCCAGUGUGGGAAACUCUUCAGCCAUCUUUGUAACCUUGCACAGCAUAAAAAGAUUCAUCAACAGAGGAUUGAGCAUCA
B11: ENSG00000021776:stop:overlap|stop_codon|ENSG00000021776|stop_codon|NA|stop_codon (ssRNA)
RNA: GGGAGUUCUACAGUCCGACGAUCCUGCACCGGCAGAAGCUAACACACCUCAGGAUGCCACAUCUGCCCCGGAAGAGACCAAGUAGCCAAACUGUAGUCCUUCUAAAGGAGGACAUGGCAGUCAAAAAGUCUGAGUAAAGCUGUCAACAGAGGAUUGAGCAUCA
B12: chr3:48693060:48693174:-|CDS|ENSG00000068745|unk|total|mutant (ssRNA)
RNA: GGGAGUUCUACAGUCCGACGAUCCCUUCCAGGUGUGGUAUCUGUGCGCUUUGAAGAAGAUGAAGACAGGAACUUGUGUCUAACCGCAUAUCCAUUGAAAGGGGACCAUGGAAUUGUGGACAUUGCCGAUAAUUCAGACUGUGACAACAGAGGAUUGAGCAUCA
B13: chr10:68442948:68443070:-|CDS|ENSG00000138346|unk|total|mutant (ssRNA)
RNA: GGGAGUUCUACAGUCCGACGAUCCCCAAUUGUGAUGCUGCCCAAAACCGAAGAAGAAACCCAGCAUCUGAAGCAAACACACUCCGAAUAUUUCAGCCUUUGGUGUCUAAUGUUAACCCUGGAGUCACAAUCGAAGGAUAAUAACAACAGAGGAUUGAGCAUCA
B14: chr12:57028516:57028881:-|three_prime_utr|ENSG00000166866|control|control|control (ssRNA)
RNA: GGGAGUUCUACAGUCCGACGAUCUUAAACUACCCUUGAAGAGGACCCUUGUCCCAAACCCUUCUUGUUCUCUCCUCCAAAAGUAGCUUCCUCCAACCCGCAGCCUCUCUGCACACUAAUAAAACAUGUGGCUUGGAAAGGUUCCAACAGAGGAUUGAGCAUCA

molecular target: T1, UNK ZnF1-6 (called full-length) (human, UniProt Q9C0B0 30-357); test: nsRBNS (natural sequence RNA bind-n-seq); RBNS binding buffer (assumed for nsRBNS): 25 mM Tris pH 7.5, 150 mM KCl, 3 mM MgCl2, 0.01% Triton X-100, 500 ug/ml BSA, 20 U/ml SUPERase-In, 4 C; UNK is unkempt and MSI1 is Musashi-1; names of the RNAs are library labels; protein concentration not given here; high values mean tight binding
T1 sequence: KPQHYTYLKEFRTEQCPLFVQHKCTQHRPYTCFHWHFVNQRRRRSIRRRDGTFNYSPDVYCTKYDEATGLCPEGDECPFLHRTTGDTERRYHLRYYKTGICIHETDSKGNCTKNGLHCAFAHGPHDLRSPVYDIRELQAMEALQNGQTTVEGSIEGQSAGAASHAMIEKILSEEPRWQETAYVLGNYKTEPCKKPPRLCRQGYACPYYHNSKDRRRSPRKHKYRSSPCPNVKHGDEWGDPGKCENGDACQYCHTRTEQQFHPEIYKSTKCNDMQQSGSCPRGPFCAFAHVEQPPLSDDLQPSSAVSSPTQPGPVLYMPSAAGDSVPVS

Binder | binding signal [enrichment R]
B1 | 0.637
B2 | 0.485
B3 | 1.41
B4 | 1.17
B5 | 0.362
B6 | 0.333
B7 | 0.392
B8 | 0.466
B9 | 0.362
B10 | 0.533
B11 | 0.541
B12 | 0.665
B13 | 0.471
B14 | 0.686
